The record followed here is the supplement of paper PMC12423691.

Sequences and labels used below:
B1: HEYL, Q9NQ87 (protein)
chain: MKRPKEPSGSDGESDGPIDVGQEGQLSQMARPLSTPSSSQMQARKKHRGIIEKRRRDRINSSLSELRRLVPTAFEKQGSSKLEKAEVLQMTVDHLKMLHATGGTGFFDARALAVDFRSIGFRECLTEVIRYLGVLEGPSSRADPVRIRLLSHLNSYAAEMEPSPTPTGPLAFPAWPWSFFHSCPGLPALSNQLAILGRVPSPVLPGVSSPAYPIPALRTAPLRRATGIILPARRNVLPSRGASSTRRARPLERPATPVPVAPSSRAARSSHIAPLLQSSSPTPPGPTGSAAYVAVPTPNSSSPGPAGRPAGAMLYHSWVSEITEIGAF
B2: MYBL2, P10244 (protein)
chain: MSRRTRCEDLDELHYQDTDSDVPEQRDSKCKVKWTHEEDEQLRALVRQFGQQDWKFLASHFPNRTDQQCQYRWLRVLNPDLVKGPWTKEEDQKVIELVKKYGTKQWTLIAKHLKGRLGKQCRERWHNHLNPEVKKSCWTEEEDRIICEAHKVLGNRWAEIAKMLPGRTDNAVKNHWNSTIKRKVDTGGFLSESKDCKPPVYLLLELEDKDGLQSAQPTEGQGSLLTNWPSVPPTIKEEENSEEELAAATTSKEQEPIGTDLDAVRTPEPLEEFPKREDQEGSPPETSLPYKWVVEAANLLIPAVGSSLSEALDLIESDPDAWCDLSKFDLPEEPSAEDSINNSLVQLQASHQQQVLPPRQPSALVPSVTEYRLDGHTISDLSRSSRGELIPISPSTEVGGSGIGTPPSVLKRQRKRRVALSPVTENSTSLSFLDSCNSLTPKSTPVKTLPFSPSQFLNFWNKQDTLELESPSLTSTPVCSQKVVVTTPLHRDKTPLHQKHAAFVTPDQKYSMDNTPHTPTPFKNALEKYGPLKPLPQTPHLEEDLKEVLRSEAGIELIIEDDIRPEKQKRKPGLRRSPIKKVRKSLALDIVDEDVKLMMSTLPKSLSLPTTAPSNSSSLTLSGIKEDNSLLNQGFLQAKPEKAAVAQKPRSHFTTPAPMSSAWKTVACGGTRDQLFMQEKARQLLGRLKPSHTSRTLILS
B3: PEX14, O75381 (protein)
chain: MASSEQAEQPSQPSSTPGSENVLPREPLIATAVKFLQNSRVRQSPLATRRAFLKKKGLTDEEIDMAFQQSGTAADEPSSLGPATQVVPVQPPHLISQPYSPAGSRWRDYGALAIIMAGIAFGFHQLYKKYLLPLILGGREDRKQLERMEAGLSELSGSVAQTVTQLQTTLASVQELLIQQQQKIQELAHELAAAKATTSTNWILESQNINELKSEINSLKGLLLNRRQFPPSPSAPKIPSWQIPVKSPSPSSPAAVNHHSSSDISPVSNESTSSSPGKEGHSPEGSTVTYHLLGPQEEGEGVVDVKGQVRMEVQGEEEKREDKEDEEDEEDDDVSHVDEEDCLGVQREDRRGGDGQINEQVEKLRRPEGASNESERD
B4: JAK2, O60674 (protein)
chain: MGMACLTMTEMEGTSTSSIYQNGDISGNANSMKQIDPVLQVYLYHSLGKSEADYLTFPSGEYVAEEICIAASKACGITPVYHNMFALMSETERIWYPPNHVFHIDESTRHNVLYRIRFYFPRWYCSGSNRAYRHGISRGAEAPLLDDFVMSYLFAQWRHDFVHGWIKVPVTHETQEECLGMAVLDMMRIAKENDQTPLAIYNSISYKTFLPKCIRAKIQDYHILTRKRIRYRFRRFIQQFSQCKATARNLKLKYLINLETLQSAFYTEKFEVKEPGSGPSGEEIFATIIITGNGGIQWSRGKHKESETLTEQDLQLYCDFPNIIDVSIKQANQEGSNESRVVTIHKQDGKNLEIELSSLREALSFVSLIDGYYRLTADAHHYLCKEVAPPAVLENIQSNCHGPISMDFAISKLKKAGNQTGLYVLRCSPKDFNKYFLTFAVERENVIEYKHCLITKNENEEYNLSGTKKNFSSLKDLLNCYQMETVRSDNIIFQFTKCCPPKPKDKSNLLVFRTNGVSDVPTSPTLQRPTHMNQMVFHKIRNEDLIFNESLGQGTFTKIFKGVRREVGDYGQLHETEVLLKVLDKAHRNYSESFFEAASMMSKLSHKHLVLNYGVCVCGDENILVQEFVKFGSLDTYLKKNKNCINILWKLEVAKQLAWAMHFLEENTLIHGNVCAKNILLIREEDRKTGNPPFIKLSDPGISITVLPKDILQERIPWVPPECIENPKNLNLATDKWSFGTTLWEICSGGDKPLSALDSQRKLQFYEDRHQLPAPKWAELANLINNCMDYEPDFRPSFRAIIRDLNSLFTPDYELLTENDMLPNMRIGALGFSGAFEDRDPTQFEERHLKFLQQLGKGNFGSVEMCRYDPLQDNTGEVVAVKKLQHSTEEHLRDFEREIEILKSLQHDNIVKYKGVCYSAGRRNLKLIMEYLPYGSLRDYLQKHKERIDHIKLLQYTSQICKGMEYLGTKRYIHRDLATRNILVENENRVKIGDFGLTKVLPQDKEYYKVKEPGESPIFWYAPESLTESKFSVASDVWSFGVVLYELFTYIEKSKSPPAEFMRMIGNDKQGQMIVFHLIELLKNNGRLPRPDGCPDEIYMIMTECWNNNVNQRPSFRDLALRVDQIRDNMAG
B5: NR1D1, P20393 (protein)
chain: MTTLDSNNNTGGVITYIGSSGSSPSRTSPESLYSDNSNGSFQSLTQGCPTYFPPSPTGSLTQDPARSFGSIPPSLSDDGSPSSSSSSSSSSSSFYNGSPPGSLQVAMEDSSRVSPSKSTSNITKLNGMVLLCKVCGDVASGFHYGVHACEGCKGFFRRSIQQNIQYKRCLKNENCSIVRINRNRCQQCRFKKCLSVGMSRDAVRFGRIPKREKQRMLAEMQSAMNLANNQLSSQCPLETSPTQHPTPGPMGPSPPPAPVPSPLVGFSQFPQQLTPPRSPSPEPTVEDVISQVARAHREIFTYAHDKLGSSPGNFNANHASGSPPATTPHRWENQGCPPAPNDNNTLAAQRHNEALNGLRQAPSSYPPTWPPGPAHHSCHQSNSNGHRLCPTHVYAAPEGKAPANSPRQGNSKNVLLACPMNMYPHGRSGRTVQEIWEDFSMSFTPAVREVVEFAKHIPGFRDLSQHDQVTLLKAGTFEVLMVRFASLFNVKDQTVMFLSRTTYSLQELGAMGMGDLLSAMFDFSEKLNSLALTEEELGLFTAVVLVSADRSGMENSASVEQLQETLLRALRALVLKNRPLETSRFTKLLLKLPDLRTLNNMHSEKLLSFRVDAQ
B6: GABPB1, Q06547 (protein)
chain: MSLVDLGKKLLEAARAGQDDEVRILMANGAPFTTDWLGTSPLHLAAQYGHYSTTEVLLRAGVSRDARTKVDRTPLHMAASEGHASIVEVLLKHGADVNAKDMLKMTALHWATEHNHQEVVELLIKYGADVHTQSKFCKTAFDISIDNGNEDLAEILQIAMQNQINTNPESPDTVTIHAATPQFIIGPGGVVNLTGLVSSENSSKATDETGVSAVQFGNSSTSVLATLAALAEASAPLSNSSETPVVATEEVVTAESVDGAIQQVVSSGGQQVITIVTDGIQLGNLHSIPTSGIGQPIIVTMPDGQQVLTVPATDIAEETVISEEPPAKRQCIEIIENRVESAEIEEREALQKQLDEANREAQKYRQQLLKKEQEAEAYRQKLEAMTRLQTNKEAV
B7: ZNF583, Q96ND8 (protein)
chain: MSKDLVTFGDVAVNFSQEEWEWLNPAQRNLYRKVMLENYRSLVSLGVSVSKPDVISLLEQGKEPWMVKKEGTRGPCPDWEYVFKNSEFSSKQETYEESSKVVTVGARHLSYSLDYPSLREDCQSEDWYKNQLGSQEVHLSQLIITHKEILPEVQNKEYNKSWQTFHQDTIFDIQQSFPTKEKAHKHEPQKKSYRKKSVEMKHRKVYVEKKLLKCNDCEKVFNQSSSLTLHQRIHTGEKPYACVECGKTFSQSANLAQHKRIHTGEKPYECKECRKAFSQNAHLAQHQRVHTGEKPYQCKECKKAFSQIAHLTQHQRVHTGERPFECIECGKAFSNGSFLAQHQRIHTGEKPYVCNVCGKAFSHRGYLIVHQRIHTGERPYECKECRKAFSQYAHLAQHQRVHTGEKPYECKVCRKAFSQIAYLDQHQRVHTGEKPYECIECGKAFSNSSSLAQHQRSHTGEKPYMCKECRKTFSQNAGLAQHQRIHTGEKPYECNVCGKAFSYSGSLTLHQRIHTGERPYECKDCRKSFRQRAHLAHHERIHTMESFLTLSSPSPSTSNQLPRPVGFIS
B8: CEBPG, P53567 (protein)
chain: MSKISQQNSTPGVNGISVIHTQAHASGLQQVPQLVPAGPGGGGKAVAPSKQSKKSSPMDRNSDEYRQRRERNNMAVKKSRLKSKQKAQDTLQRVNQLKEENERLEAKIKLLTKELSVLKDLFLEHAHNLADNVQSISTENTTADGDNAGQ
B9: ELF1, P32519 (protein)
chain: MAAVVQQNDLVFEFASNVMEDERQLGDPAIFPAVIVEHVPGADILNSYAGLACVEEPNDMITESSLDVAEEEIIDDDDDDITLTVEASCHDGDETIETIEAAEALLNMDSPGPMLDEKRINNNIFSSPEDDMVVAPVTHVSVTLDGIPEVMETQQVQEKYADSPGASSPEQPKRKKGRKTKPPRPDSPATTPNISVKKKNKDGKGNTIYLWEFLLALLQDKATCPKYIKWTQREKGIFKLVDSKAVSRLWGKHKNKPDMNYETMGRALRYYYQRGILAKVEGQRLVYQFKEMPKDLIYINDEDPSSSIESSDPSLSSSATSNRNQTSRSRVSSSPGVKGGATTVLKPGNSKAAKPKDPVEVAQPSEVLRTVQPTQSPYPTQLFRTVHVVQPVQAVPEGEAARTSTMQDETLNSSVQSIRTIQAPTQVPVVVSPRNQQLHTVTLQTVPLTTVIASTDPSAGTGSQKFILQAIPSSQPMTVLKENVMLQSQKAGSPPSIVLGPAQVQQVLTSNVQTICNGTVSVASSPSFSATAPVVTFSPRSSQLVAHPPGTVITSVIKTQETKTLTQEVEKKESEDHLKENTEKTEQQPQPYVMVVSSSNGFTSQVAMKQNELLEPNSF

The other results are listed elsewhere or left out. Binding of human transcription factors and regulators to the viral nucleoprotein by AlphaScreen, crude cell-free proteins, amounts not normalised, one pass. Fold of the Venus control; higher = more signal. No active / inactive call. Single-pass screen; sequences are the whole Swiss-Prot entries looked up by name.

In the test the target is nucleoprotein N of Crimean-Congo hemorrhagic fever virus. Kind of test: AlphaScreen luminescence signal relative to Venus negative control (fold); higher = stronger binding to CCHFV N. How it is done:
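AlphaScreen binding of cell-free made, FLAG-GST-tagged human transcription factors and regulators (crude translation products) to biotinylated N protein; signal as fold of the FLAG-GST-Venus control. One pass.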
(In Alpha technology, singlet oxygen from a donor bead excites a nearby acceptor bead.)
For the molecule B1, the AlphaScreen luminescence signal worked out at 1.77. The molecule B2 displayed an AlphaScreen luminescence signal of 3.91. B3 displayed an AlphaScreen luminescence signal of 29.7.

B4 had an AlphaScreen luminescence signal of 2.88. As for B5, the figure is 3.44; as for B6, 1.16; as for B7, 2.33. For the molecule B8, the AlphaScreen luminescence signal came to 2.51. On to B9, for which the AlphaScreen luminescence signal is 2.19.
